This is one part of the list. Sequences were assembled here from the parent chain. Values near 0.05 are background.

To fix the notation:
B1: TEV protease; numbered along this chain (parent)
chain: MGESLFKGPRDYNPISSSICHLTNESDGHTTSLYGIGFGPFIITNKHLFRRNNGTLVVQSLHGVFKVKDTTTLQQHLVDGRDMIIIRMPKDFPPFPQKLKFREPQREERICLVTTNFQTKSMSSMVSDTSCTFPSGDGIFWKHWIQTKDGQCGSPLVSTRDGFIVGIHSASNFTNTNNYFTSVPKNFMELLTNQEAQQWVSGWRLNADSVLWGGHKVFMVKPEEPFQPVKEATQL
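Also: Bxb1 expression induced with 0.2% (w/v) L-rhamnose at OD600 near 0.5, cultures sampled hourly, flipped fraction per protease–substrate barcode pair counted by paired-end Illumina sequencing.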

The variants in this assay derive from B1. The assay is described as follows: raw area under fraction-flipped curve 0-4 h after induction (AUC4h, not background-subtracted), DNA-recorder readout of cleavage of the substrate (dimensionless); higher = more cleavage of the substrate by the protease variant. The note with it: temperature: 34 °C; time window: 0-4 h after rhamnose induction.
Regarding MGESLFKGPRDYNPISSSICHLTNESDGHTTSLYGIGFGPFIITNKHLFRRNNGTLVVQSLHGVFAVKDTTTLQQHLVDGRDMIIIRMPKDFPPFPQKLKFREPQREERICLVTTNFQTKSMSSMVSDTSCTFPSGDGIFWKHWIQTKDGQCGSPLVSTRDGFIVGIHSASNFTNTNNYFTSVPKNFMELLTNQEAQQWVSGWRLNADSVLWGGHKVFMVKPEEPFQPVKEATQL [K66A], the “area with substrate SNLYFQS” value worked out at 0.0686 and the “area with substrate WNLYFQS” value stood at 0.0588. Regarding MGESLFKGPRDYNPISSSICHLTNESDGHTTSLYGIGFGPFIITNKHLFRRNNGTLVVQSLHGVFKVKDTTTLQQHLVDGRDMIIIRMPKDFPPFPQKLKFREPQREERICLVTTNFQTKSMSSMVSDTSCTFPSGDGIFWKHWIQTKDGQCGSPLVSTRDGFIVGIHSASNFTNTNNYFTSVPKNFMELLTNQEAQQWVSGWRLNADSVLWGGHKVFMVKPEEPFAPVKEATQL [Q227A], the “area with substrate RNLYFQS” value is 0.0656, the “area with substrate SNLYFQS” value stood at 0.0598 and the “area with substrate TNLYFQS” value was determined as 0.0756. For MGESLFKGPRDYNPISSSICHLTNESDGHTTSLYGIGFGPFIITNKHLFRRNNGTLVVQSLHGVFKVKDTTTLQQGLVDGRDMIIIRMPKDFPPFPQKLKFREPQREERICLVTTNFQTKSMSSMVSDTSCTFPSGDGIFWKHWIQTKDGQCGSPLVSTRDGFIVGIHSASNFTNTNNYFTSVPKNFMELLTNQEAQQWVSGWRLNADSVLWGGHKVFMVKPEEPFQPVKEATQL [H76G], the “area with substrate SNLYFQS” value came out at 0.0568 and the “area with substrate WNLYFQS” value amounted to 0.0662. MGESLFSGPRDYNPISSSICHLTNESDGHTTSLYGIGFGPFIITNKHLFRRNNGTLVVQSLHGVFKVKDTTTLQQHLVDGRDMIIIRMPKDFPPFPQKLKFREPQREERICLVTTNFQTKSMSSMVSDTSCTFPSGDGIFWKHWIQTKDGQCGSPLVSTRDGFIVGIHSASNFTNTNNYFTSVPKNFMELLTNQEAQQWVSGWRLNADSVLWGGHKVFMVKPEEPFQPVKEATQL [K7S]: the “area with substrate QNLYFQS” value worked out at 0.0888. Regarding IGESLFKGPRDYNPISSSICHLTNESDGHTTSLYGIGFGPFIITNKHLFRRNNGTLVVQSLHGVFKVKDTTTLQQHLVDGRDMIIIRMPKDFPPFPQKLKFREPQREERICLVTTNFQTKSMSSMVSDTSCTFPSGDGIFWKHWIQTKDGQCGSPLVSTRDGFIVGIHSASNFTNTNNYFTSVPKNFMELLTNQEAQQWVSGWRLNADSVLWGGHKVFMVKPEEPFQPVKEATQL [M1I], the “area with substrate SNLYFQS” value was 0.0564. Turning to MGESLFKGPRDYNPISSSICHLTNESDGHTTSLYGIGFGPFIITNKHLFRRNNGTLVVQSLHGVFKVKDTTTLQQHLVDGRDMIIIRMPKDFPPFPQKLKFREPQREERICLVTTNFQTKSMSSMVSDTSCTFPSGDGIFWKHWIQTKDGQCGSPLVSTRDGFIVGIHSASQFTNTNNYFTSVPKNFMELLTNQEAQQWVSGWRLNADSVLWGGHKVFMVKPEEPFQPVKEATQL [N172Q], the “area with substrate TNLYFQS” value came out at 0.0431.

As for MGESLFKGPRDYNPISSSICHLTNESDGHTTSLYGIGFGPFIITNKHLFRRNNGTLVVQSLHGVFKVKDTTTLQQHLVDGRDMIIIRMPKDFPPFPQKLKFREPQREERICLVTTNFQTKSMSSMVSDTSCTFPSGDGIFNKHWIQTKDGQCGSPLVSTRDGFIVGIHSASNFTNTNNYFTSVPKNFMELLTNQEAQQWVSGWRLNADSVLWGGHKVFMVKPEEPFQPVKEATQL [W141N], the “area with substrate QNLYFQS” value came to 0.0513, the “area with substrate RNLYFQS” value turned out to be 0.0426, the “area with substrate SNLYFQS” value came to 0.0403 and the “area with substrate VNLYFQS” value amounted to 0.0627. In addition, the “area with substrate YNLYFQS” value came to 0.0606. As for MGESLFKGPRDYNPISSSICHLTNESDGHTTSLYGIGFGPFIITNKHLFRRNNGTLVVQSLHGVFKVKDTTTLQQHLVDGRDMIIINMPKDFPPFPQKLKFREPQREERICLVTTNFQTKSMSSMVSDTSCTFPSGDGIFWKHWIQTKDGQCGSPLVSTRDGFIVGIHSASNFTNTNNYFTSVPKNFMELLTNQEAQQWVSGWRLNADSVLWGGHKVFMVKPEEPFQPVKEATQL [R87N], the “area with substrate TNLYFQS” value was 0.0686 and the “area with substrate WNLYFQS” value was 0.0538.

As to MGESLFKGPRDYNPISSSICHLTNESDGHTTSLYGIGFGPFIITNKHLFRRNNGTLVVQSLHGVFKVKDTTTLQQHLVDGRDMIIIRMPKDFPPFPQKLKFREPQREERICLVTTNFQTKSMSSMVSDTSCTFPSGDGIFWKHWIQTKDGQCGSPLVSTRDGFIVKIHSASNFTNTNNYFTSVPKNFMELLTNQEAQQWVSGWRLNADSVLWGGHKVFMVKPEEPFQPVKEATQL [G166K], the “area with substrate TNLYFQS” value was determined as 0.0556. Turning to MGESLFKGPRDYNPISSSICHLTNESDGHTTSLYGIGFGPFIITNKHLFRRNNGTLVVQSLHGVFKVKDTTTLQQHLVDGRDMIIIRMPKDFPPFPQKLKFREPQREERICLVTTNFQTKSMSSMVSDTSCTFPSGDGIFWKHWIQTKDGQCFSPLVSTRDGFIVGIHSASNFTNTNNYFTSVPKNFMELLTNQEAQQWVSGWRLNADSVLWGGHKVFMVKPEEPFQPVKEATQL [G153F], the “area with substrate SNLYFQS” value came out at 0.0438 and the “area with substrate TNLYFQS” value came to 0.0451. For MGESLFKGPRDYNPISSSICHLTNESDGHTTSLYGIGFGPFIITNKHLFRRNNGTLVVQSLHGVFKVKDTTTLQQHLVDGRDMIIIRMPKDFPPFPQKLKFREPQREERICLVTTNFQTKSMSSMVSDTSCTFPSGDGIFWKHWIQTKDGQCSSPLVSTRDGFIVGIHSASNFTNTNNYFTSVPKNFMELLTNQEAQQWVSGWRLNADSVLWGGHKVFMVKPEEPFQPVKEATQL [G153S], the “area with substrate TNLYFQS” value was 0.0734.

(Values after the supplement of paper PMC12217912.)
